{
  "source": "the supplement of paper PMC8728848",
  "binders": {"B1": {"name": "Epa10 (protein)", "chain": "MNEKIFRYLTLLFLFELARSLPVEDKLNIKKVFEKRAVDFTPFAHYPRPEGCSSPPNSVSVGLHMNLYNYPYLYVKPSTKGMFTNDTNSDADGETDGDSAGGIEGRAGQCWNPEYQDPNFPRFGYKQYGEFGASDNVNGDISWDHNEFTEGCKPVLAALPPGYNYPDEITFSNFTMVLSGYFKPKTSGVYKFELKADDFILFNFGAKNAFECCNREESIDNFGPYVAYAMWPNQADQELEVYLFEDSYYPLRLFYNNRDYHSKFKIGFYPPGQTTITFDFDGYLFMLDDTGNECRDSIRYRTVCDDKVVDDTTYSTRYSTSMVPGGGSDVITIYYIRMKCEEEDCLGQWDPINNVCYSPDDCADDGGYWNGQMCDQSCKLEGGIVNPDTGDCDKSCIESGGFLDENGNCDTTCRDDGGMLVEGQCDYQCKEAGGILVGDHCDTTCVDSGGKLNEDGTCDHSCRDQGGQLDENGECDTSCKDSGGMLIEGECDTSCKDEGGQLDDNNECINHCKDQGGIIDENGNCDTSCKDSGGKLDESGACDTSCRDDGGIIDENGNCNTTCRDDGGIIVGDHCDTSCRDAGGILIEDHCDTTCRDSGGKLNEDGTCDHSCRDQGGQLDENGKCDYSCKNGGGKLDEDGNCDMSCKENGGKLDENGDCDLSCKEDGGKLDGNGDCDYSCKEEGGVIDESGNCNTTCKDSGGQIIDGECNYGCIEVGGVVIDGECDTSCIDSGGILDGDGNCDRSCIESGGVLEDGACNTTCRDSGGQLNVDGTCDTSCRDDGGMLVEGQCDYQCKEAGGILEDGECVFPPTSSSTSETSSTTDQSSLQSDDSSMESSSTPMDSSTIESSSSEIITSESESESVPIASSSSEVMTSESESESIPILTSSSEIPIASSSSEIPVASSSSEIIIPESESESVPVASSSSEIPIASSSSEIPVASSSSEIPVASSSSEIIIPESESESIPIESTSSEAVSSRSESDSSYPTPTPTTTTITTWPNPIQPTTSNSSPIVSSSTETPGIAESSSRISDLESSRRTSILGDDRTRTRTTITSTITEDGQIITITTTVTGFVPEPTGETEGNGSDDENPENPIENNTDENEFLDPEFTDDIPDDPAGPEDNGNGPVNPEQGNDNDPVNLEDSGNNGAVNPEQAPVNDEDNGGNDPVNPEQDNNNGPANPGQDSTNGSGNSDQIDNNPPTPEENAGDGNSNGNDPADPSRRTSILGDERTRASPGGTSQPTGANGNVNGNSPGANVNGGGTGNSNNNNNNNNNNNNGNAPNGGDGSNGDANQGPSRRTSLLGDERTRAGQAAPTGGSSPDNGIAGDTSNNGGAIVSQQVDDGGAGSPRRTSILGDVRSRTTLNGEVLNFEGSGVRRAVAGNLALPLMMVGLVFNL"}},
  "assay_in_all_cases": "glycan array binding signal (z-score within array); higher = stronger binding",
  "details_in_all_cases": "glycan notation: IUPAC condensed, linker removed",
  "key": {"GlcNAc(b1-3)Gal(b1-4)Glc": {"target": "GlcNAc(b1-3)Gal(b1-4)Glc", "in_short": "(§1)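 From the Consortium for Functional Glycomics database, 3228 arrays were curated, keeping only those whose protein sequence was available. Binding is given as a within-array Z-score averaged across arrays sharing a protein sequence and across linkers. Negative Z-scores can be read as non-binding.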"}, "[1]": {"target": "GlcNAc(b1-3)Gal(b1-4)GlcNAc", "in_short": "as §1"}, "[2]": {"target": "GlcNAc(b1-3)Gal(b1-4)GlcNAc(b1-2)Man(a1-3)[GlcNAc(b1-3)Gal(b1-4)GlcNAc(b1-2)Man(a1-6)]Man(b1-4)GlcNAc(b1-4)GlcNAc", "in_short": "as §1"}, "[3]": {"target": "GlcNAc(b1-3)Gal(b1-4)GlcNAc(b1-2)Man(a1-3)[GlcNAc(b1-3)Gal(b1-4)GlcNAc(b1-2)Man(a1-6)]Man(b1-4)GlcNAc(b1-4)[Fuc(a1-6)]GlcNAc", "in_short": "as §1"}, "[4]": {"target": "GlcNAc(b1-3)Gal(b1-4)GlcNAc(b1-2)[GlcNAc(b1-3)Gal(b1-4)GlcNAc(b1-6)]Man(a1-6)[GlcNAc(b1-3)Gal(b1-4)GlcNAc(b1-2)Man(a1-3)]Man(b1-4)GlcNAc(b1-4)GlcNAc", "in_short": "as §1"}, "[5]": {"target": "GlcNAc(b1-3)Gal(b1-4)GlcNAc(b1-3)Gal(b1-4)GlcNAc", "in_short": "as §1"}, "[6]": {"target": "GlcNAc(b1-3)Gal(b1-4)GlcNAc(b1-3)Gal(b1-4)GlcNAc(b1-2)Man(a1-3)[GlcNAc(b1-3)Gal(b1-4)GlcNAc(b1-3)Gal(b1-4)GlcNAc(b1-2)Man(a1-6)]Man(b1-4)GlcNAc(b1-4)GlcNAc", "in_short": "as §1"}, "[7]": {"target": "GlcNAc(b1-3)Gal(b1-4)GlcNAc(b1-3)Gal(b1-4)GlcNAc(b1-2)Man(a1-3)[GlcNAc(b1-3)Gal(b1-4)GlcNAc(b1-3)Gal(b1-4)GlcNAc(b1-2)Man(a1-6)]Man(b1-4)GlcNAc(b1-4)[Fuc(a1-6)]GlcNAc", "in_short": "as §1"}, "[8]": {"target": "GlcNAc(b1-3)Gal(b1-4)GlcNAc(b1-3)Gal(b1-4)GlcNAc(b1-2)[GlcNAc(b1-3)Gal(b1-4)GlcNAc(b1-3)Gal(b1-4)GlcNAc(b1-6)]Man(a1-6)[GlcNAc(b1-3)Gal(b1-4)GlcNAc(b1-3)Gal(b1-4)GlcNAc(b1-2)Man(a1-3)]Man(b1-4)GlcNAc(b1-4)[Fuc(a1-6)]GlcNAc", "in_short": "as §1"}, "[9]": {"target": "GlcNAc(b1-3)Gal(b1-4)GlcNAc(b1-3)Gal(b1-4)GlcNAc(b1-3)Gal(b1-4)GlcNAc(b1-2)Man(a1-3)[GlcNAc(b1-3)Gal(b1-4)GlcNAc(b1-3)Gal(b1-4)GlcNAc(b1-3)Gal(b1-4)GlcNAc(b1-2)Man(a1-6)]Man(b1-4)GlcNAc(b1-4)GlcNAc", "in_short": "as §1"}, "[10]": {"target": "GlcNAc(b1-3)Gal(b1-4)GlcNAc(b1-3)Gal(b1-4)GlcNAc(b1-3)Gal(b1-4)GlcNAc(b1-2)Man(a1-3)[GlcNAc(b1-3)Gal(b1-4)GlcNAc(b1-3)Gal(b1-4)GlcNAc(b1-3)Gal(b1-4)GlcNAc(b1-2)Man(a1-6)]Man(b1-4)GlcNAc(b1-4)[Fuc(a1-6)]GlcNAc", "in_short": "as §1"}, "[11]": {"target": "GlcNAc(b1-3)Gal(b1-4)GlcNAc(b1-3)Gal(b1-4)GlcNAc(b1-3)Gal(b1-4)GlcNAc(b1-2)[GlcNAc(b1-3)Gal(b1-4)GlcNAc(b1-3)Gal(b1-4)GlcNAc(b1-3)Gal(b1-4)GlcNAc(b1-6)]Man(a1-6)[GlcNAc(b1-3)Gal(b1-4)GlcNAc(b1-3)Gal(b1-4)GlcNAc(b1-3)Gal(b1-4)GlcNAc(b1-2)Man(a1-3)]Man(b1-4)GlcNAc(b1-4)[Fuc(a1-6)]GlcNAc", "in_short": "as §1"}, "[12]": {"target": "GlcNAc(b1-3)Gal(b1-4)GlcNAc(b1-3)Gal(b1-4)GlcNAc(b1-3)Gal(b1-4)GlcNAc(b1-3)Gal(b1-4)GlcNAc(b1-2)Man(a1-3)[GlcNAc(b1-3)Gal(b1-4)GlcNAc(b1-3)Gal(b1-4)GlcNAc(b1-3)Gal(b1-4)GlcNAc(b1-3)Gal(b1-4)GlcNAc(b1-2)Man(a1-6)]Man(b1-4)GlcNAc(b1-4)GlcNAc", "in_short": "as §1"}, "[13]": {"target": "GlcNAc(b1-3)Gal(b1-4)GlcNAc(b1-3)Gal(b1-4)GlcNAc(b1-3)Gal(b1-4)GlcNAc(b1-3)Gal(b1-4)GlcNAc(b1-2)Man(a1-3)[GlcNAc(b1-3)Gal(b1-4)GlcNAc(b1-3)Gal(b1-4)GlcNAc(b1-3)Gal(b1-4)GlcNAc(b1-3)Gal(b1-4)GlcNAc(b1-2)Man(a1-6)]Man(b1-4)GlcNAc(b1-4)[Fuc(a1-6)]GlcNAc", "in_short": "as §1"}, "[14]": {"target": "GlcNAc(b1-3)Gal(b1-4)GlcNAc(b1-3)Gal(b1-4)GlcNAc(b1-3)Gal(b1-4)GlcNAc(b1-3)Gal(b1-4)GlcNAc(b1-2)[GlcNAc(b1-3)Gal(b1-4)GlcNAc(b1-3)Gal(b1-4)GlcNAc(b1-3)Gal(b1-4)GlcNAc(b1-3)Gal(b1-4)GlcNAc(b1-6)]Man(a1-6)[GlcNAc(b1-3)Gal(b1-4)GlcNAc(b1-3)Gal(b1-4)GlcNAc(b1-3)Gal(b1-4)GlcNAc(b1-3)Gal(b1-4)GlcNAc(b1-2)Man(a1-3)]Man(b1-4)GlcNAc(b1-4)[Fuc(a1-6)]GlcNAc", "in_short": "as §1"}, "[15]": {"target": "GlcNAc(b1-3)Gal(b1-4)GlcNAc(b1-3)Gal(b1-4)GlcNAc(b1-3)GalNAc", "in_short": "as §1"}, "[16]": {"target": "GlcNAc(b1-3)Gal(b1-4)GlcNAc(b1-3)GalNAc", "in_short": "as §1"}, "[17]": {"target": "GlcNAc(b1-3)Gal(b1-4)GlcNAc(b1-3)[GlcNAc(b1-3)Gal(b1-4)GlcNAc(b1-3)]GalNAc", "in_short": "as §1"}, "[18]": {"target": "GlcNAc(b1-3)Gal(b1-4)GlcNAc(b1-6)[Gal(b1-3)]GalNAc", "in_short": "as §1"}, "[19]": {"target": "GlcNAc(b1-3)Gal(b1-4)GlcNAc(b1-6)[GlcNAc(b1-3)Gal(b1-3)]GalNAc", "in_short": "as §1"}, "[20]": {"target": "GlcNAc(b1-3)Gal(b1-4)GlcNAc(b1-6)[GlcNAc(b1-3)]Gal(b1-4)GlcNAc", "in_short": "as §1"}, "GlcNAc(b1-3)GalNAc": {"target": "GlcNAc(b1-3)GalNAc", "in_short": "as §1"}},
  "note": "Some of the results follow.",
  "data": [
    {"binder": "B1", "values": [
      {"measurement": "glycan array binding signal (z-score)", "setting": "GlcNAc(b1-3)Gal(b1-4)Glc", "value": -0.254},
      {"measurement": "glycan array binding signal (z-score)", "setting": "[1]", "value": -0.268},
      {"measurement": "glycan array binding signal (z-score)", "setting": "[2]", "value": -0.196},
      {"measurement": "glycan array binding signal (z-score)", "setting": "[3]", "value": -0.206},
      {"measurement": "glycan array binding signal (z-score)", "setting": "[4]", "value": -0.125},
      {"measurement": "glycan array binding signal (z-score)", "setting": "[5]", "value": -0.213},
      {"measurement": "glycan array binding signal (z-score)", "setting": "[6]", "value": -0.076},
      {"measurement": "glycan array binding signal (z-score)", "setting": "[7]", "value": -0.129},
      {"measurement": "glycan array binding signal (z-score)", "setting": "[8]", "value": -0.132},
      {"measurement": "glycan array binding signal (z-score)", "setting": "[9]", "value": -0.283},
      {"measurement": "glycan array binding signal (z-score)", "setting": "[10]", "value": 0.011},
      {"measurement": "glycan array binding signal (z-score)", "setting": "[11]", "value": -0.103},
      {"measurement": "glycan array binding signal (z-score)", "setting": "[12]", "value": -0.22},
      {"measurement": "glycan array binding signal (z-score)", "setting": "[13]", "value": -0.145},
      {"measurement": "glycan array binding signal (z-score)", "setting": "[14]", "value": -0.075},
      {"measurement": "glycan array binding signal (z-score)", "setting": "[15]", "value": -0.241},
      {"measurement": "glycan array binding signal (z-score)", "setting": "[16]", "value": -0.313},
      {"measurement": "glycan array binding signal (z-score)", "setting": "[17]", "value": -0.284},
      {"measurement": "glycan array binding signal (z-score)", "setting": "[18]", "value": 1.14},
      {"measurement": "glycan array binding signal (z-score)", "setting": "[19]", "value": -0.202},
      {"measurement": "glycan array binding signal (z-score)", "setting": "[20]", "value": -0.312},
      {"measurement": "glycan array binding signal (z-score)", "setting": "GlcNAc(b1-3)GalNAc", "value": -0.266}
    ]}
  ]
}
